Experimental data as given in the antibiotic and cytotoxicity screens of Wong et al. (2023).
The other results are listed elsewhere or left out.

These compounds were tested on HSkMC (human skeletal muscle cells) (assay: cytotoxicity call (relative viability < 0.9)). Conditions: 10 µM.
With `COCC#Cc1ccc2c(c1)O[C@@H](CN(C)C(=O)c1ccccc1F)[C@@H](C)CN([C@H](C)CO)S2(=O)=O` the cytotoxicity call was “inactive”.
With `C[C@@H]1CN([C@@H](C)CO)C(=O)CCCn2cc(nn2)CO[C@H]1CN(C)C(=O)Nc1ccc(C(C)(C)C)cc1` the cytotoxicity call was “inactive”.
In the case of `Cc1ccc(S(=O)(=O)Nc2ccc3c(c2)C(=O)N([C@H](C)CO)C[C@@H](C)[C@H](CN(C)C(=O)Nc2ccc4c(c2)OCO4)OCCCC[C@@H](C)O3)cc1`, the cytotoxicity call is reported as “inactive”.
For `COc1ccc(CN(C)C[C@@H]2Oc3ccc(NC(=O)CCN4CCOCC4)cc3CC(=O)N([C@@H](C)CO)C[C@H]2C)cc1`, the cytotoxicity call was “inactive”.
With `Cc1ccc(S(=O)(=O)Nc2ccc3c(c2)C(=O)N([C@H](C)CO)C[C@H](C)[C@H](CN(C)Cc2ccc(Oc4ccccc4)cc2)O3)cc1` the cytotoxicity call was “inactive”.
With `COc1ccc(CN(C)C[C@H]2OCCCC[C@@H](C)Oc3ccc(NC(=O)Nc4ccccc4)cc3C(=O)N([C@@H](C)CO)C[C@@H]2C)cc1` the cytotoxicity call was “inactive”.
With `C[C@@H]1CCCCO[C@H](CN(C)CC2CCCCC2)[C@@H](C)CN([C@H](C)CO)C(=O)c2cc(NC(=O)c3ccncc3)ccc2O1` the cytotoxicity call was “inactive”.
`COc1ccc(C#N)nc1` was tested, and the cytotoxicity call was “inactive”.
`C[C@@H]1CN([C@H](C)CO)C(=O)c2cc(NS(=O)(=O)c3cn(C)cn3)ccc2O[C@@H]1CN(C)C(=O)Nc1ccccc1` was tested, and the cytotoxicity call was “inactive”.
In the case of `CCCn1c(=O)c(C#N)cn(C2CC2)c1=O`, the cytotoxicity call is reported as “inactive”.
`C[C@H]1CN([C@@H](C)CO)C(=O)Cc2cc(NC(=O)CCC(F)(F)F)ccc2O[C@H]1CN(C)Cc1ccc(C(=O)Nc2ccccc2N)cc1` was tested, and the cytotoxicity call was “inactive”.
